PubChem BioAssay AID743279 (National Center for Advancing Translational Sciences (NCATS), 2014)
Among all 360,000 compounds or so, about 17,000 (4.7%) were called active. Inconclusive means that the source gave no clear call. Such entries were picked first, then a sample of the others. Rule as the data show it: active = activity change below about -50%; inconclusive = mostly about -30% to -49%; inactive = weaker than that.
% is scaled to controls: 0 for no effect and ±100 for the full control effect.

Test: qHTS for Inhibitors of Inflammasome Signaling: IL-1-beta AlphaLISA Primary Screen
Details: THP-1 LPS/ATP IL-1B secretion, 16 h; at 57.5 µM, stronger effect = lower value
Summary of the method: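 Secreted IL-1B measured by AlphaLISA bead assay after 16 h compound exposure of THP-1 cells; compounds (final up to 57.5 uM) added 1 h before LPS (250 ng/mL) and ATP (1.25 mM) stimulation; lower signal means less secretion.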
With `CCCCC1CC2=C(C(=O)OC(C)(C)O2)C(c2ccc3ccccc3c2)O1` (configuration not stated) the activity change was inactive: -0.341%.
With `c1ccc(-c2ccccc2OCCCCn2ccnc2)cc1` the activity change was active: -57.9%.
With `O=C(/C=C/c1c(Cl)cccc1Cl)NCCc1ccccc1` the activity change was inconclusive: -30.1%.
With `COc1ccc(C(C(=O)NC(C)(C)C)N(C(=O)CCC(=O)Nc2cc(C)on2)c2c(C)cccc2C)cc1` (configuration not stated) the activity change was inactive: -8.1%.
For `Cc1cccc(NC(=O)Nc2cccc(Oc3c(F)c(F)c(F)c(F)c3F)c2)c1`, the activity change was inconclusive: -48.7%.
For `COc1ccc2c(c1OC)c(=O)n1c3ccc(OC(C)C(=O)NCCCN4CCOCC4)cc3c3ccnc2c31` (configuration not stated), the activity change was inconclusive: -49.1%.
With `Cc1ccc(C)c(NC(=O)c2nc(-c3ccccc3)n(-c3ccccc3)n2)c1` the activity change was inconclusive: -33.7%.
For `CCN1C(=Nc2ccc(Cl)cc2)SC/C1=C\C(=O)OC`, the activity change was inconclusive: -39.4%.
For `COc1ccccc1/C=C1\NC(=S)N(CC2CCCO2)C1=O` (configuration not stated), the activity change was inconclusive: -31.9%.
For `CN1CC(c2ccccn2)C2(SC(=S)N(Cc3ccccc3)C2=O)C12C(=O)Nc1ccccc12` (configuration not stated), the activity change was inactive: -21.7%.
With `Cc1ccc2c(c1)C1CN(C)CCC1N2C(=S)Nc1ccc(OC(F)F)cc1` (configuration not stated) the activity change was active: -62.4%.
For `Cc1ccc(-c2csc3ncnc(-n4nnc5ccccc54)c23)cc1`, the activity change was inconclusive: -30.4%.
In the case of `Cc1cc(OC(C)C(=O)NC(Cc2c[nH]c3ccc(O)cc23)C(=O)O)c2c(C)c(C)c(=O)oc2c1` (configuration not stated), the activity change is reported as inactive: -0.0653%.
For `C=CCOc1ccccc1CN1CCC(n2nccc2NC(=O)c2ccccc2)CC1`, the activity change was inconclusive: -33.7%.
For `CCN(CC(=O)Nc1ccc(NC(C)=O)cc1)C(=O)c1ccc(N2CCC(C)CC2)c([N+](=O)[O-])c1`, the activity change was inactive: -27.9%.
With `COc1c(OC)c(O)c2c(=O)c(O)c(-c3ccccc3)oc2c1OC` the activity change was inconclusive: -31%.
In the case of `Cc1ccc(OCC(=O)N2CCc3ccccc3C2)c(Br)c1`, the activity change is reported as inconclusive: -35.2%.
For `O=C(COC(=O)c1cc(S(=O)(=O)N2CCOCC2)ccc1F)c1ccccc1`, the activity change was inconclusive: -35.5%.
With `COc1cccc(-c2c(C(=O)N/N=C/c3cccs3)nnn2-c2nonc2N)c1` the activity change was inconclusive: -47.9%.
For `OC(c1ccc(Cl)cc1)c1ncc(-c2cccc(C(F)(F)F)c2)[nH]1` (configuration not stated), the activity change was inconclusive: -37.6%.
For `CCOC(=O)c1ccc(NC(=O)c2nc[nH]c2C(=O)N[C@@H](C)CO)cc1`, the activity change was inconclusive: -44.8%.
In the case of `CN1CCN(c2nc(Nc3cccc(C(F)(F)F)c3)nc(N3CCOCC3)n2)CC1`, the activity change is reported as active: -59.1%.
In the case of `O=C(NCc1ccccc1)C1=C[C@@H](c2csc3ccccc23)C[C@@H](OCc2ccc(CO)cc2)O1`, the activity change is reported as inconclusive: -37.9%.
With `CC1(Cc2ccccc2OC(F)(F)F)C(=O)Nc2cc(-c3ccccc3Cl)ccc21` (configuration not stated) the activity change was inactive: -14.9%.
For `COc1ccc(OC)c2c(C)cc(N3CCCCCC3)nc12`, the activity change was inactive: -11%.
For `COc1ccc2[nH]c(=O)c(CN(C(=O)c3cccnc3)c3cc(C)ccc3C)cc2c1`, the activity change was inactive: -4.55%.
For `CN(C)c1ccc(/C=N/NC(=O)c2ccc(CN3CCOCC3)cc2)cc1Br`, the activity change was inactive: -10.3%.
With `CC(=O)NC12CC3CC(C1)CC(C(=O)OCC(=O)c1ccc4c(c1)OCCO4)(C3)C2` the activity change was inactive: -9.58%.
With `Cc1ccc(S(=O)(=O)N(Cc2ccc(Cl)cc2)c2ccccc2C(=O)NCc2ccco2)cc1` the activity change was inconclusive: -35.4%.
With `O=C(CSc1ccccc1F)NC(=O)NC1CCCC1` the activity change was inactive: 2.86%.
In the case of `CCOc1ccc(S(=O)(=O)N2CCCCC2)cc1NC(=O)C1CCCC1`, the activity change is reported as inactive: 8.29%.
For `CCNc1nc2c(c(=O)n(C)c(=O)n2C)n1CCCc1ccccc1`, the activity change was inactive: -8.99%.
For `CC(C)Oc1cccc(C(=O)C2CCCN(Cc3cccn3-c3ccccn3)C2)c1` (configuration not stated), the activity change was active: -91.6%.
With `Nc1c(N2CCCCC2)c2ccccc2oc1=O` the activity change was inactive: 1.92%.
With `COc1cc(N=c2ssnc2Cl)cc(OC)c1` the activity change was inconclusive: -49.2%.
For `O=S(=O)(c1ccc(SCCOc2ccccc2Cl)nc1)N1CCCC1`, the activity change was inconclusive: -39.1%.
For `O=C(c1ccc2nc(-c3ccco3)c(-c3ccco3)nc2c1)N1CCN(c2ccccc2)CC1`, the activity change was inconclusive: -31.9%.
With `NC(=S)NC(=O)/C=C/c1ccccc1` the activity change was active: -95.6%.
With `O=C(c1ccco1)N1CCN=C1SCc1ccccc1F` the activity change was inconclusive: -41.7%.
For `CSc1ccc(/C=C(\NC(=O)c2ccc(C)cc2)C(=O)NN)cc1`, the activity change was inconclusive: -34%.
With `COc1cccc(/C=C2\SC(=O)N(CCC(=O)NC3CCS(=O)(=O)C3)C2=O)c1` (configuration not stated) the activity change was inconclusive: -40.7%.
In the case of `CC(C)(C)N(NC(=O)Nc1ccc(Cl)c(Cl)c1)C(=O)c1ccccc1`, the activity change is reported as active: -50.9%.
In the case of `COc1ccc(C(=O)NC(=S)N2CCCCC2)cc1[N+](=O)[O-]`, the activity change is reported as inactive: -5.02%.
For `Cc1cc(C)cc(SCc2noc(C(=O)NC(C)C)c2C(=O)O)c1`, the activity change was inactive: -8.11%.
With `COc1ccc(S(=O)(=O)N(C)Cc2cccs2)cc1Br` the activity change was inactive: -24.5%.
In the case of `CC(=O)Nc1ccc(S(=O)(=O)Nc2nc3ccccc3nc2Nc2cccc(S(N)(=O)=O)c2)cc1`, the activity change is reported as inactive: 5.93%.
For `Cc1ccc(OCCCC(=O)Nc2ccc(Cl)c(S(=O)(=O)N3CCOCC3)c2)cc1`, the activity change was inconclusive: -34%.
In the case of `COc1ccc(N=C2C(=Nc3ccc(OC)cc3)N(c3ccc(OC)cc3)C(=S)N2C(=O)c2ccc(OC)cc2)cc1`, the activity change is reported as inconclusive: -41.7%.
For `O=[N+]([O-])c1ccc(-c2cnc(SC(c3ccccc3)c3ccccc3)[nH]2)cc1`, the activity change was active: -52%.
In the case of `COc1ccc(-c2oc3c(c2C#CC(C)(C)O)C(OC)CCC3)cc1` (configuration not stated), the activity change is reported as active: -59.2%.
For `COc1cccc(/C(C#N)=C/c2c(-c3ccc(Cl)cc3)nc3c(C)cccn23)c1`, the activity change was active: -65.4%.
With `CC(C)(C)c1ccc(Cn2nc(CC(=O)O)c3ccccc3c2=O)cc1` the activity change was inactive: 18.5%.
In the case of `Cc1noc(/C=C/c2ccco2)c1S(=O)(=O)N1CCC(C(=O)N2c3ccccc3CC2C)CC1` (configuration not stated), the activity change is reported as inconclusive: -31.3%.
In the case of `O=C(Nc1ccccc1)N1CCc2c([nH]c3ccccc23)C1C(F)(F)F` (configuration not stated), the activity change is reported as active: -92.5%.
In the case of `CCN1CCN(CCNC(=O)c2ccc(CS(=O)c3ccc(Br)cc3)o2)CC1` (configuration not stated), the activity change is reported as inactive: 19.5%.
In the case of `CCOC(=O)c1sc(=S)n(-c2cccc(C(F)(F)F)c2)c1SC`, the activity change is reported as inactive: -10.7%.
With `CN(c1ccc(OC(=O)c2ccc(-n3cncn3)c([N+](=O)[O-])c2)cc1)S(=O)(=O)c1ccccc1` the activity change was inactive: -9.47%.
In the case of `COc1ccc(C(C[N+](=O)[O-])c2c(C)[nH]n(-c3ccccc3)c2=O)cc1` (configuration not stated), the activity change is reported as active: -52.1%.
For `CSC(SC)=C(C#N)C(=O)c1ccccc1`, the activity change was active: -89.3%.
With `CCC1C(c2ccccc2)N(C)C(c2ccccc2)CC1(O)c1ccccc1` (configuration not stated) the activity change was inconclusive: -42.8%.
In the case of `CCCOc1ccc(C(=O)C(CN2CCOCC2)c2ccccc2)cc1` (configuration not stated), the activity change is reported as active: -96.9%.
For `CCC(C(=O)NCCCN1CC(C)CC(C)C1)n1nc(C)c2sc3ccccc3c2c1=O` (configuration not stated), the activity change was inconclusive: -42.3%.
With `COC(=O)c1sc(-c2ccc(C(C)(C)C)cc2)cc1NC(=O)CCC(=O)O` the activity change was inactive: 8.4%.
In the case of `COc1cc([N+](=O)[O-])ccc1NC(=O)NCc1ccccn1`, the activity change is reported as inconclusive: -32.4%.
With `Cc1cc2c(NCC(C)O)ncnc2s1` (configuration not stated) the activity change was inactive: 18.5%.
For `Cc1nc(-c2cccc(NC(=O)c3ccc(Br)o3)c2)cs1`, the activity change was inconclusive: -31.2%.
In the case of `COc1ccc(CN2CCN(Cc3cc4ccccc4o3)CC2CCO)cc1C` (configuration not stated), the activity change is reported as inconclusive: -30.7%.
For `O=S(=O)(Nc1ccc2oc(-c3ccccc3)nc2c1)c1ccccc1`, the activity change was inconclusive: -35.5%.
For `O=C(CCN1C(=O)c2cccc3cccc(c23)C1=O)N1CCOCC1`, the activity change was inconclusive: -46.7%.
For `COc1ccc(C2CC(=O)c3sc(NC(C)=O)nc3C2)cc1` (configuration not stated), the activity change was inconclusive: -49.9%.
With `O=C(O)c1ccc(NCCC2=CCCCC2)c([N+](=O)[O-])c1` the activity change was inactive: 15.5%.
In the case of `COc1ccccc1C1=Nn2c(nnc2C2CCCCC2)SC1`, the activity change is reported as inconclusive: -33.6%.
For `CC1(C)C(C=C(Cl)Cl)C1C(=O)N(Cc1ccc(Cl)cc1)C1CCS(=O)(=O)C1` (configuration not stated), the activity change was inconclusive: -41.7%.
In the case of `CNC(=S)NNC(=O)COc1ccccc1C`, the activity change is reported as inconclusive: -47.3%.
With `CC1=C(C)/C(=N\OS(=O)(=O)c2ccc(C)cc2)C=CC1=O` the activity change was active: -103%.
In the case of `Nc1nc(NCCCN2CCOCC2)nc(Nc2ccccc2)c1[N+](=O)[O-]`, the activity change is reported as active: -59.1%.
With `Cc1noc(NS(=O)(=O)c2ccc(NC(=O)CC(C)C)cc2)c1C` the activity change was inactive: -14.2%.
In the case of `O=C(OCc1c(-c2ccccc2)ncc2ccccc12)N1CCOCC1`, the activity change is reported as inconclusive: -34.4%.
For `Cc1ccc(C(=O)Nc2nc(-c3ccccn3)cs2)o1`, the activity change was inactive: 165%.
In the case of `CCOC(=O)c1ccc(CNC(=O)c2cc(COc3ccccc3SC)on2)o1`, the activity change is reported as inactive: -0.7%.
In the case of `CCOc1cc(C(N)=O)cc(Cl)c1OCC`, the activity change is reported as inactive: -1.58%.
With `COc1ccc(NC(=O)N2CCN(c3nc(-c4cccc(OC)c4)cs3)CC2)cc1` the activity change was active: -93.3%.
In the case of `Cc1ccc(S(=O)(=O)CCC(=O)NCc2ccco2)cc1`, the activity change is reported as inactive: 5.69%.
With `O=C(CP(=O)(c1ccccc1)c1ccccc1)Nc1cccc(CP(=O)(c2ccccc2)c2ccccc2)c1` the activity change was inconclusive: -32.1%.
In the case of `CC1Cc2ccccc2N1C(=O)CN1C(=O)C(=O)N(Cc2ccccc2)C1=O` (configuration not stated), the activity change is reported as inactive: 1.65%.
For `O=C(Nc1ccnn1C1CCN(Cc2ccc3nonc3c2)CC1)c1cccc(F)c1`, the activity change was inconclusive: -41.2%.
In the case of `CCOc1cccc(C(=O)NC(=S)Nc2ccc(N3CCN(CC)CC3)cc2)c1`, the activity change is reported as inconclusive: -47.2%.
